This is an account of results in PubChem BioAssay (NCI).

SMILES strings stand for the structures.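 Results reflect a 48-hour exposure of cells in 96-well plates to compound at five concentrations. GI50 is the concentration that inhibits growth by half. TGI is the concentration that stops growth completely.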

For the assay, the system named is NCI-H322M lung. The assay can be described thus: inhibition of tumour cell growth, NCI panel, 48 h.
As for `C=C(C)CCC(C)N1CCC(N2CCC(C(=O)NCCc3ccccc3)CC2)CC1` (stereo unspecified), the GI50 was 28.9 µM and the TGI is more than 100 µM.
Turning to `CC(=O)OC1C2(CC3N4C(=O)C5(CO)SSC4(CC31O)C(=O)N5C)OC(C)C(C)(C)C2=O` (stereo unspecified), the GI50 is 0.184 µM and the TGI is 0.53 µM.
For `C=C[C@]1(C)C=C2C(=O)[C@@]3(O)OC[C@@]4(CCCC(C)(C)C43O)C2(O)C(O)C1` (stereo partly specified), in that order: 13.5 µM and 35.3 µM.
`O=C(O)C/C(=C\c1ccccc1)C(=O)O` yielded a TGI of more than 100 µM.
As for `Nc1nc(Nc2cccc(F)c2)nc2ccccc12`, the GI50 is 31.3 µM and the TGI was more than 100 µM.
For the molecule `O=C1CCC2(c3ccccc3)Nc3cc(Cl)ccc3N12` (stereo unspecified), the TGI was more than 100 µM.
On the same count and under the same terms, under `COc1ccc(C2NC3=C(CCCC3)C3(C#N)C(=O)N=C(N)C23C#N)cc1` (stereo unspecified) stands more than 100 µM.
With `Cn1cc(-c2ccc3c(c2)CCN3C(=O)Cc2cccc(C(F)(F)F)c2)c2c(N)ncnc21`, the GI50 is 2.98 µM and the TGI was 49.2 µM.
`Clc1ccc(CN2COc3c(cc(Cl)c4cccnc34)C2)cc1` came in with a TGI of 12.1 µM.
The molecule `Cn1c(COC(=O)NC2CCCCC2)c(COC(=O)NC2CCCCC2)c2ccc3cc(Cl)c(Cl)cc3c21` returned a TGI of more than 100 µM.
With `C/C(=N\NC(N)=O)C(CN(C)C)C(c1ccccc1)c1c(O)c2ccccc2oc1=O` (stereo unspecified), the TGI is more than 100 µM.
On the same count and under the same terms, under `O=Cc1cc2c(o1)C(=O)c1ccccc1C2=O` stands 2.79 µM; under `CC(Oc1ccc(OCC2CCCCC2)cc1)C(=O)N(CCO)CCO` (stereo unspecified), more than 100 µM.
In turn, `CCOC(=O)COc1ccc(/C=C/C(=O)c2ccc(OC)cc2)cc1` registered a TGI of more than 100 µM.
Same read-out and setting: under `CN(C)C(=O)C1CCC(=C2C(=O)OC(C)(C)OC2=O)N1C` (stereo unspecified) stands more than 100 µM.
Consider `CCOC(=O)c1c(C)n(Cc2ccc(Cl)cc2Cl)c2c1cc1oc(=O)c(=O)n3c(Cc4ccccc4)nc2c13`, for which the GI50 was 4.27 µM and the TGI turned out to be 13.1 µM.
`O=[N+]([O-])c1ccc(CS(=O)Cc2ccccc2)cc1` (stereo unspecified): the TGI was more than 100 µM.
`CC1=CCS(=O)(=O)C1C(O)C1=C(C)CCCC1(C)C` (stereo unspecified) returned a TGI of more than 100 µM.
The same measure, in the same setting: for `C=C(Br)CN(CC(=C)Br)C(C)=O` the value was more than 100 µM.
Consider `CCOC(=O)/C(C#N)=C1\N[C@H](C(=O)OCC)CO1`, for which the TGI was more than 100 µM.
Same read-out and setting: for `CC(=O)Nc1ccc(N2C(=O)/C(=C\c3cccc(Oc4ccccc4)c3)SC2c2ccccc2)cc1` (stereo unspecified) the value was more than 100 µM; for `COc1ccc(NCC(=O)Nn2c(C)nc3ccc(S(=O)(=O)Nc4ccc(OC)cc4)cc3c2=O)cc1`, more than 100 µM; for `O=C(Cc1ccccc1)N/N=C(\C1=Nc2ccc([N+](=O)[O-])cc2NC1O)C(O)c1ccc([N+](=O)[O-])cc1` (stereo unspecified), more than 100 µM.
Take `COc1ccc2c(c1)C(=O)c1c-2n(CCCN2CCOCC2)c(=O)c2ccccc12`: the GI50 was 4.21 µM and the TGI is more than 59.5 µM.
In the case of `CC[CH2][Pb]([CH2]CC)([CH2]CC)[NH]S(=O)(=O)c1ccc(C)cc1`, the GI50 was 0.0671 µM and the TGI was 0.336 µM.
In the same order, the values of `O=c1[nH]cnc2c(C3OC(CO)C(O)C3O)scc12` (stereo unspecified) are more than 100 µM and more than 100 µM.
The molecule `CCSc1nc(COC(=O)NC)c(COC(=O)NC)n1C` gave a TGI of more than 100 µM.
